The antibiotic and cytotoxicity screens of Wong et al. (2023)
The list shows a part of the results.

System: HSkMC (human skeletal muscle cells)
Assay: cytotoxicity call (relative viability < 0.9)
Settings: 10 µM

SMILES	cytotoxicity call
C[C@H](CO)N1C[C@H](C)[C@H](CN(C)C(=O)Nc2ccc(F)cc2)Oc2ccc(NC(=O)C3CC3)cc2CC1=O	inactive
O=C(C[C@H]1C[C@@H]2c3cc(NC(=O)C4CCOCC4)ccc3O[C@@H]2[C@@H](CO)O1)NCCN1CCCCC1	inactive
O=C(C[C@@H]1C[C@@H]2c3cc(NC(=O)Nc4ccccc4)ccc3O[C@@H]2[C@H](CO)O1)NCCN1CCCCC1	inactive
C[C@@H]1CN([C@H](C)CO)C(=O)CCCn2cc(nn2)CO[C@H]1CN(C)C(=O)Nc1ccc2c(c1)OCCO2	inactive
O=C1CSC(/N=C/c2ccccc2O)=NN1	active
C[C@@H]1CN([C@@H](C)CO)C(=O)c2cc(NC(=O)CCCCCC(=O)Nc3ccccc3N)ccc2O[C@H]1CN(C)S(C)(=O)=O	inactive
COCC(=O)N1CC[C@]2(CC1)CN([C@H](CO)c1[nH]c3cc(ccc3c12)OC)S(=O)(=O)C	inactive
C[C@H](N)[C@H](O)c1cccc(O)c1	inactive
C[C@H]1CN([C@@H](C)CO)C(=O)Cc2cc(NC(=O)Nc3ccc4c(c3)OCO4)ccc2O[C@H]1CN(C)Cc1ccc(C(F)(F)F)cc1	inactive

System: HepG2
Assay: cytotoxicity call (relative viability < 0.9)
Settings: 10 µM

SMILES	cytotoxicity call
CN1C(=O)c2cc(NC(=O)c3cnccn3)ccc2OC[C@H]2O[C@@H](CC(=O)N[C@H]3CCN(Cc4ccccc4)C3)CC[C@@H]21	inactive
C[C@@H]1CN([C@@H](C)CO)C(=O)c2cc(NS(=O)(=O)c3ccc(F)cc3)ccc2O[C@@H](C)CCCCO[C@@H]1CN(C)C(=O)Cc1ccccc1	inactive
CCNC(=O)[C@H]1[C@H](CO)[C@H]2Cn3c(ccc(-c4cccc(OC)c4)c3=O)[C@H]2N1S(C)(=O)=O	inactive
COc1nc(N)nc2c1ncn2[C@@H]1O[C@H](CO[P@@](=O)(N[C@@H](C)C(=O)OCC(C)(C)C)Oc2cccc3ccccc23)[C@@H](O)[C@@]1(C)O	active
CC(=O)Oc1ccn(C)c(=O)c1C#N	inactive
C[C@@H]1CN([C@@H](C)CO)C(=O)c2ccccc2-c2ccccc2CO[C@@H]1CN(C)Cc1cccc2c1OCCCO2	inactive
Cl.NC(CS)C(=O)O (centres undefined)	inactive
C[C@@H]1CCCCO[C@@H](CN(C)Cc2ccccc2)[C@H](C)CN([C@H](C)CO)C(=O)c2cc(NC(=O)CCC(F)(F)F)ccc2O1	inactive
Oc1cccc(O)c1O	inactive
COc1ccc2c3c(n(c2c1)C)[C@@H](CO)N(C[C@]13CCN(CC1)C(=O)CN(C)C)S(=O)(=O)C	inactive
CNC(=O)N1C[C@H]2C[C@@H]3[C@@](C1)(CN(C)S3(=O)=O)O2	inactive
C[C@H](CO)N1C[C@H](C)[C@H](CN(C)Cc2ccccc2)OCCCC[C@H](C)Oc2ccc(NC(=O)c3ccccc3)cc2C1=O	inactive
C[C@@H]1CCCCO[C@H](CN(C)C(=O)Nc2ccc3c(c2)OCO3)[C@H](C)CN([C@@H](C)CO)C(=O)c2cc(NC(=O)Cc3ccccc3)ccc2O1	inactive
C[C@@H]1CCCCO[C@H](CN(C)S(=O)(=O)c2cn(C)cn2)[C@H](C)CN([C@@H](C)CO)C(=O)c2cc(NS(=O)(=O)c3ccc(F)cc3)ccc2O1	inactive
C[C@@H]1CN([C@@H](C)CO)C(=O)c2ccccc2-c2ccccc2CO[C@@H]1CN(C)C(=O)Nc1ccc(-c2ccccc2)cc1	inactive
C[C@@H]1CN([C@H](C)CO)C(=O)c2ccccc2-c2ccccc2CO[C@H]1CN(C)C(=O)Nc1ccc(F)cc1	inactive
C[C@@H]1CN([C@@H](C)CO)C(=O)c2cc(NC(=O)c3ccncc3)ccc2O[C@H]1CN(C)S(=O)(=O)c1ccc(F)cc1	inactive
COc1ccc(S(=O)(=O)N(C)C[C@H]2Oc3c(NS(=O)(=O)c4ccccc4)cccc3C(=O)N([C@H](C)CO)C[C@@H]2C)cc1	inactive
COC(=O)c1c(C)c2c(c(C)c1O)OC(=O)c1c(C)c(Cl)c(O)c(Cl)c1O2	inactive
CCc1c(C)[nH]c(N2CCOCC2)nc1=O	inactive

SMILES	cytotoxicity call
COCC(=O)Nc1ccc2c(c1)C(=O)N(C)C[C@@H](OC)[C@@H](C)CN(C(=O)c1ccccc1F)[C@@H](C)CO2	inactive
NNC(=O)CS(=O)(=O)c1ccc(Cl)cc1	inactive
O=C1OCC=C[C@H]2O[C@@]34C=CCN(c5ccc6ccccc6c5)C(=O)[C@H]3N(CCCCCCO)C(=O)[C@@H]4[C@@H]12	inactive
COc1ccc(S(=O)(=O)N(C)C[C@H]2Oc3ccc(NC(=O)NC(C)C)cc3C(=O)N([C@@H](C)CO)C[C@H]2C)cc1	inactive
C[C@@H]1CCCCO[C@H](CN(C)S(=O)(=O)c2ccc(Cl)cc2)[C@@H](C)CN([C@H](C)CO)C(=O)c2cc(NS(=O)(=O)c3cccs3)ccc2O1	inactive
C[C@@H]1CN([C@@H](C)CO)S(=O)(=O)c2ccc(-c3cccc(C#N)c3)cc2O[C@@H]1CN(C)C(=O)c1cccnc1	inactive
COCC#Cc1cnc2c(c1)C(=O)N([C@@H](C)CO)C[C@H](C)[C@H](CN(C)C(=O)c1ccc3c(c1)OCO3)O2	inactive
COc1ccc(S(=O)(=O)Nc2ccc3c(c2)C(=O)N([C@H](C)CO)C[C@H](C)[C@@H](CN(C)Cc2ccc(Cl)c(Cl)c2)OCCCC[C@@H](C)O3)cc1	active
CCC(=O)N1C[C@]2(C1)CN([C@@H](CO)c1c2c2ccc(cc2n1C)OC)S(=O)(=O)C	inactive
COc1ccc(S(=O)(=O)N(C)C[C@@H]2Oc3ccc(NS(C)(=O)=O)cc3CC(=O)N([C@@H](C)CO)C[C@H]2C)cc1	inactive
C[C@@H]1CN([C@H](C)CO)S(=O)(=O)c2ccc(C#CC3(O)CCCC3)cc2O[C@@H]1CN(C)C(=O)Cc1ccccc1	inactive
C[C@H](CO)N1C[C@H](C)[C@H](CN(C)C(=O)Nc2ccc(F)cc2)Oc2ccc(NC(=O)C3CC3)cc2CC1=O	inactive
O=C(C[C@H]1C[C@@H]2c3cc(NC(=O)C4CCOCC4)ccc3O[C@@H]2[C@@H](CO)O1)NCCN1CCCCC1	inactive
O=C(C[C@@H]1C[C@@H]2c3cc(NC(=O)Nc4ccccc4)ccc3O[C@@H]2[C@H](CO)O1)NCCN1CCCCC1	inactive
C[C@@H]1CN([C@H](C)CO)C(=O)CCCn2cc(nn2)CO[C@H]1CN(C)C(=O)Nc1ccc2c(c1)OCCO2	inactive
O=C1CSC(/N=C/c2ccccc2O)=NN1	active
C[C@@H]1CN([C@@H](C)CO)C(=O)c2cc(NC(=O)CCCCCC(=O)Nc3ccccc3N)ccc2O[C@H]1CN(C)S(C)(=O)=O	inactive
COCC(=O)N1CC[C@]2(CC1)CN([C@H](CO)c1[nH]c3cc(ccc3c12)OC)S(=O)(=O)C	inactive
C[C@H](N)[C@H](O)c1cccc(O)c1	inactive
C[C@H]1CN([C@@H](C)CO)C(=O)Cc2cc(NC(=O)Nc3ccc4c(c3)OCO4)ccc2O[C@H]1CN(C)Cc1ccc(C(F)(F)F)cc1	active
